PubChem BioAssay AID485364 (National Center for Advancing Translational Sciences (NCATS), 2010)
In all, about 360,000 compounds went through this assay and about 11,000 (3.1%) were called active. This list was built around the results that the source calls inconclusive (neither active nor inactive); the mix of calls is not that of the screen. The call rests on the fitted dose curve; in most records, active means well fitted inhibition curve with a large enough effect; inconclusive means small, poorly fitted or top-dose-only effect; inactive means no such curve, though single readings can be large or run the other way. No potency is given beside an inconclusive call; the fits are too rough.

The compounds below were run against Schistosoma mansoni thioredoxin glutathione reductase (TGR) (UniProt Q962Y6) (assay: qHTS Assay for the Inhibitors of Schistosoma Mansoni Peroxiredoxins). Conditions: purified TGR, DTNB reduction, TNB absorbance 405 nm; series mostly up to 114 µM.
How it was run: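 First, TGR (20 nM dispensed) and NADPH were mixed with compound. Second, a 15 min room-temperature incubation followed. Third, further NADPH and then DTNB were added to start the reaction. Finally, TNB absorbance was monitored kinetically.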
Further: nearly all actives have a fitted effect of over 60% in size.
Potency means the concentration at half of the fitted maximal effect; tags describe the fitted curve by direction and shape.

| Structure (SMILES) | Potency |
| --- | --- |
| COC(=O)c1sccc1NC(=O)/C=C/c1ccc(Cl)cc1 | inconclusive [inhibitor, single point] |
| Cc1oc(-c2ccccc2F)nc1CS(=O)(=O)CC(=O)N1CCN(Cc2ccccc2)CC1 | active: 12.6 µM |
| Cc1ccccc1CNc1nc(N(C)C)nc2c1cnn2C | inconclusive [inhibitor, single point] |
| c1coc(CNc2ncnc3sc4c(c23)CCCCC4)c1 | inconclusive [inhibitor, partial curve] |
| COc1cccc(/C=C2\Oc3cc(OCC(=O)N4CCCCC4)ccc3C2=O)c1OC | inactive |
| CCOc1cc(C(=O)Nc2cccc(OCC(=O)N3CCOCC3)c2)cc(OCC)c1OCC | inactive |
| c1ccc(CN2CCC(Nc3nc(-c4ccccc4)nc4ccccc34)CC2)cc1 | inactive |
| Cc1cc(O)c(C(=O)/C=C/c2ccccc2O)c(=O)o1 | inconclusive [inhibitor, partial curve] |
| O=C1ON=C(c2ccccc2)/C1=C/c1ccc(O)c(O)c1 | active: 5.01 µM |
| O=c1[nH][nH]cc1C=Nc1ccc(Cl)cc1 | inconclusive [inhibitor, single point] |
| O=C(COC(=O)c1ccccc1NCCO)NCCc1ccccc1 | inconclusive [inhibitor, single point] |
| COc1ccc(CN(C)c2ccc(-c3nc(-c4ccccc4)no3)cc2[N+](=O)[O-])cc1 | inactive |
| CCOC(=O)c1c(-c2ccco2)csc1N | inconclusive [inhibitor, partial curve] |
| O=C(Nc1ccncc1)c1cc(S(=O)(=O)N2CCN(c3ccccc3)CC2)ccc1Cl | inactive |
| Cc1ccc(NC(=O)COC(=O)Cc2cccs2)cc1S(=O)(=O)N1CCOCC1 | inconclusive [inhibitor, partial curve] |
| Cc1cc(C=C2C(=O)NC(=O)NC2=O)c(C)n1-c1ccncc1 | inconclusive [inhibitor, partial curve] |
| Cc1ccccc1-n1nnnc1SCc1ncc(-c2ccccc2)o1 | inconclusive [inhibitor, partial curve] |
| O=C(Cc1ccc(Br)cc1)N1CCN(c2ccc(F)cc2)CC1 | inactive |
| CC(C(=O)NCc1ccccc1Cl)n1ccc2cc(S(=O)(=O)N3CCCCC3)ccc21 (centres undefined) | inactive |
| Oc1ccc(Nc2nc3ccccc3n3cnnc23)cc1 | inconclusive [inhibitor, single point] |
| Cc1ccc(/C=N/NC(=O)NC23CC4CC(CC(C4)C2)C3)o1 | inconclusive [inhibitor, partial curve] |
| O=C1NC(=O)C(=Cc2cc(Cl)ccc2OCc2ccc(C(=O)O)cc2)C(=O)N1 | inconclusive [inhibitor, full curve, poor fit] |
| OCc1ccccc1NC(=S)Nc1cccnc1 | inconclusive [inhibitor, partial curve] |
| CN1CCCN(C(=O)/C=C/c2ccc(Cl)cc2Cl)CC1 | inactive |
| Cc1ccc(NNC(=O)c2cccs2)cc1Cl | inconclusive [inhibitor, partial curve] |

| Structure (SMILES) | Potency |
| --- | --- |
| Cc1occc1C(=O)N1CCN(C(c2ccccc2)c2ccccc2)CC1 | inconclusive [inhibitor, partial curve] |
| CCc1ccc(OCC(=O)NC(=S)Nc2ccc(C(=O)O)cc2)cc1 | inconclusive [inhibitor, partial curve] |
| Cc1ccc(C)n1NC(=O)c1cccs1 | inconclusive [inhibitor, full curve, poor fit] |
| CCN(CC)CCN(C(=O)CCS(=O)(=O)c1ccccc1)c1nc2cc(OC)c(OC)cc2s1 | active: 14.1 µM |
| Cc1ccc(NC2CC(=O)N(c3ccc(N4CCCCC4)cc3)C2=O)cc1 (centres undefined) | inconclusive [inhibitor, partial curve] |
| O=c1cc(CO)oc(C(Nc2ccccn2)c2ccc(C(F)(F)F)cc2)c1O (centres undefined) | active: 39.8 µM |
| O=C(O)c1ccc(NC(=S)NC(=O)C(c2ccccc2)c2ccccc2)cc1 | inconclusive [inhibitor, partial curve] |
| NC(=O)[C@@H]1CCCN1Cc1c(C(=O)N2CCN(C3CCCCC3)CC2)nc2ccccn12 | inconclusive [inhibitor, full curve, poor fit] |
| Cc1ccc(/C=C/C(=O)Nc2sc(C)c(C)c2C(=O)OC(C)C)o1 | inconclusive [inhibitor, partial curve] |
| O=C(C1=C[C@H](C2CCCCC2)C[C@H](OCc2ccc(CO)cc2)O1)N1CCN(Cc2ccccc2)CC1 | inconclusive [inhibitor, full curve] |
| CCCCn1c(SCC(=O)NCc2ccco2)nc2ccc(N3CCOCC3)cc2c1=O | active: 28.2 µM |
| CC(c1ccon1)N(C)Cc1cn(C)nc1-c1cccc(Cl)c1 (centres undefined) | active: 28.2 µM |
| COc1ccc(Br)cc1/C=C/C(=O)Nc1ccc(C)cc1 | inactive |
| COc1ccccc1-c1nc(S(=O)(=O)c2ccccc2)c(N2CCOCC2)o1 | inconclusive [inhibitor, full curve, poor fit] |
| O=C(Cc1ccccc1)N/N=C/c1cc(Br)c(Br)o1 | inconclusive [inhibitor, full curve, poor fit] |
| COc1ccc(C2C=C(c3ccc(Cl)cc3)Nc3nc(NC(C)=O)nn32)cc1 (centres undefined) | inconclusive [inhibitor, full curve, poor fit] |
| COc1cc(OC)nc(-n2ncc(Br)c(Br)c2=O)n1 | active: 1.78 µM |
| CCCn1cc(CN2CCC(N3CCC(C(=O)N4CCOCC4)CC3)CC2)c(C)n1 | inconclusive [inhibitor, partial curve] |
| c1ccc2c(Nc3nc4c(s3)CCCC4)cccc2c1 | inconclusive [inhibitor, partial curve] |
| Cc1ccc(-n2nc3ccc(NC(=O)c4oc5ccc(C)cc5c4C)cc3n2)cc1 | inactive |
| CCCCNC(=O)c1onc(CCl)c1C(=O)OC | inconclusive [inhibitor, partial curve] |
| COc1ccccc1C(=O)NNS(=O)(=O)c1ccc(F)cc1 | inactive |
| CCc1ccccc1NC(=O)Cn1c(=O)n(CCCS(=O)(=O)C2CCCCC2)c(=O)c2ccccc21 | inconclusive [inhibitor, single point] |
| COc1ccccc1NC(=O)CCn1cccc1 | inconclusive [inhibitor, partial curve, poor fit] |
| CC1Cc2ccccc2N1C(=O)COC(=O)CNC(=O)c1ccc(Br)o1 (centres undefined) | inconclusive [inhibitor, partial curve] |

| Structure (SMILES) | Potency |
| --- | --- |
| CN1C(=O)NC(c2ccccc2)C2=C1CN(Cc1ccco1)C2=O (centres undefined) | active: 35.5 µM |
| COc1ccc(OCCCC(=O)Nc2ccc(OC)c(S(=O)(=O)N3CCOCC3)c2)cc1 | inconclusive [inhibitor, partial curve] |
| O=C1NC(=O)N(CCC2=CCCCC2)C(=O)/C1=C/c1ccc(O)cc1 | inconclusive [inhibitor, full curve, poor fit] |
| Cc1ccc(NC(=O)c2cccnc2C(=O)O)nc1 | inactive |
| Cn1cnc([N+](=O)[O-])c1Sc1ncccc1N | inconclusive [inhibitor, partial curve, poor fit] |
| CCOc1cccc(/C=N/N2C(=O)CSC2=S)c1O | active: 3.55 µM |
| Cc1ccc(C)c(C(=O)COc2ccc(C)nc2[N+](=O)[O-])c1 | active: 11.2 µM |
| Oc1c(C(c2ccccn2)N2CCC(Cc3ccccc3)CC2)cc(Cl)c2cccnc12 (centres undefined) | active: 3.55 µM |
| CC(=O)c1cccc(NC=C2C(=O)OC3(CCCCC3)OC2=O)c1 | inconclusive [inhibitor, partial curve, poor fit] |
| Cc1ccc(C)c(N2CCN(C(=O)Nc3ccc4c(c3)N(C)C(=O)CS4)CC2)c1 | inactive |
| O=C(NC(C(Cl)Cl)N1CCOCC1)c1ccccc1 (centres undefined) | inconclusive [inhibitor, partial curve] |
| O=C(Cn1cnc2ccccc2c1=O)c1cccs1 | inactive |
| CCN(CC)c1ccc(C(=O)N/N=C(\C)c2cccnc2)cc1 | inactive |
| COc1cc2[nH]c(=O)n(CCCC(=O)NCCc3ccccc3)c(=O)c2cc1OC | inconclusive [inhibitor, single point] |
| c1n[nH]c(NC2=NCCC2)n1 | inactive |
| c1cncc(-c2nc(NCc3cccs3)c3ccccc3n2)c1 | inconclusive [inhibitor, single point] |
| S=C(Nc1ccccc1)N1CCCCCC1 | inactive |
| O=C(CC(C(=O)N1CCc2ccccc21)n1ccnc1)N1CCc2ccccc2C1 (centres undefined) | inconclusive [inhibitor, partial curve] |
| Cc1cc(NC(=O)CN2CCCC(C)C2)n(-c2nc3ccccc3s2)n1 (centres undefined) | active: 12.6 µM |
| CC(C(=O)NC1C(=O)N2C(C(=O)O)=C(CSc3nnnn3C)CSC12)n1cc(Cl)cn1 (centres undefined) | inconclusive [inhibitor, full curve, poor fit] |
| O=C(c1cccc(Cl)c1)N1CCN(C(=O)c2ccco2)CC1 | inconclusive [inhibitor, partial curve] |
| C=C1C2(C(=O)Nc3nccs3)CCC(C2)C1(C)C (centres undefined) | inactive |
| Cc1ccc(NNC(=O)c2ccno2)cc1C | active: 50.1 µM |
| Fc1ccc(/C=C2\CCCC3=C2NC(=S)NC3c2ccc(F)cc2)cc1 (centres undefined) | inconclusive [inhibitor, partial curve] |
